# The densities may have been worked out from excess volumes.
# Experiment: xn = mol fraction of the nth substance listed
# Details: 100 kPa
structure (smiles),measurement,setting,value
CCCC[n+]1ccn(C)c1.COS(=O)(=O)[O-] + CCCC#N,mass density,"298.15 K, x1 = 1",1212.1 kg/m3
same,mass density,"308.15 K, x1 = 1",1205.4 kg/m3
same,mass density,"313.15 K, x1 = 1",1202 kg/m3
CCCC#N + CCCC[n+]1ccn(C)c1.COS(=O)(=O)[O-],mass density,"298.15 K, x2 = 0",786.3 kg/m3
same,mass density,"298.15 K, x2 = 0.2128",963.9 kg/m3
same,mass density,"298.15 K, x2 = 0.3714",1046 kg/m3
same,mass density,"298.15 K, x2 = 0.4263",1068.5 kg/m3
same,mass density,"298.15 K, x2 = 0.5115",1099.1 kg/m3
same,mass density,"298.15 K, x2 = 0.6345",1135.8 kg/m3
same,mass density,"298.15 K, x2 = 0.8065",1176.5 kg/m3
same,mass density,"298.15 K, x2 = 0.9072",1196 kg/m3
same,mass density,"303.15 K, x2 = 0",781.6 kg/m3
same,mass density,"303.15 K, x2 = 0.1117",888 kg/m3
same,mass density,"303.15 K, x2 = 0.2128",959.8 kg/m3
same,mass density,"303.15 K, x2 = 0.3714",1042.2 kg/m3
same,mass density,"303.15 K, x2 = 0.4263",1064.8 kg/m3
same,mass density,"303.15 K, x2 = 0.6345",1132.2 kg/m3
same,mass density,"303.15 K, x2 = 0.7161",1152.9 kg/m3
same,mass density,"303.15 K, x2 = 0.9072",1192.7 kg/m3
same,mass density,"308.15 K, x2 = 0",777 kg/m3
same,mass density,"308.15 K, x2 = 0.1117",883.8 kg/m3
same,mass density,"308.15 K, x2 = 0.2128",955.8 kg/m3
same,mass density,"308.15 K, x2 = 0.3714",1038.4 kg/m3
same,mass density,"308.15 K, x2 = 0.4263",1061 kg/m3
same,mass density,"308.15 K, x2 = 0.6345",1128.6 kg/m3
same,mass density,"308.15 K, x2 = 0.8065",1169.6 kg/m3
same,mass density,"308.15 K, x2 = 0.9072",1189.3 kg/m3
same,mass density,"313.15 K, x2 = 0",772.3 kg/m3
same,mass density,"313.15 K, x2 = 0.1117",879.6 kg/m3
same,mass density,"313.15 K, x2 = 0.2128",951.8 kg/m3
same,mass density,"313.15 K, x2 = 0.3714",1034.6 kg/m3
same,mass density,"313.15 K, x2 = 0.5115",1088 kg/m3
same,mass density,"313.15 K, x2 = 0.7161",1145.8 kg/m3
same,mass density,"313.15 K, x2 = 0.8065",1166.1 kg/m3
same,mass density,"313.15 K, x2 = 0.9072",1185.9 kg/m3

# From a compilation of properties of binary mixtures (doi:10.1016/j.molliq.2020.112507)
